Experimental data: PubChem BioAssay AID720536 (National Center for Advancing Translational Sciences (NCATS), 2013)
Screen size: about 1,600 compounds; about 650 (41%) were called active. The set was probably picked from earlier hits. Inconclusive means that the source gave no clear call. Such entries were picked first, then a sample of the others. Calls follow the shape of the dose curve; as a rule, active = well fitted inhibition curve with a large enough effect; inconclusive = small, poorly fitted or top-dose-only effect; inactive = no such curve, though single readings can be large or run the other way. No potency is given beside an inconclusive call; the fits are too rough.

Assay: qHTS for Inhibitors of TGF-b: CCL64 Cells Orthogonal Assay for Cherry Picks; also: nearly all actives have a fitted effect of over 65% in size
Conditions: CCL64 CAGA-GFP reporter, TGF-b stimulated, GFP fluorescence, 18 h; series mostly up to 46.1 µM
Outline: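 Readout was total-well GFP fluorescence from summed single-cell values after 18 h TGF-beta stimulation (500 pg/mL) of CCL64 CAGA-GFP cells in 1% FBS, compounds added 2 h after plating. Normalized to unstimulated and stimulated-DMSO wells; curves classified by fit quality and efficacy.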
Potency is read from the fitted curve at half-maximal effect; tags tell the direction and shape of the fitted curve.

| SMILES | Potency |
| --- | --- |
| O=C(CCNc1ccc(Br)cc1)c1cccc([N+](=O)[O-])c1 | inactive |
| O=C(CN1C2CCCC1CC(NC(=O)C1CCCCC1)C2)Nc1ccccc1C(F)(F)F (stereo unspecified) | inconclusive [inhibitor, partial curve, poor fit] |
| Cc1cc(Cl)n2c(nc3ccccc32)c1C#N | active: 1.46 µM |
| CC[C@@]1(O)C(=O)OCc2c1cc1n(c2=O)Cc2cc3c(N)cccc3nc2-1 | inactive |
| COc1ccc(C[C@@H]2CN3C(=NC[C@@H]3Cc3ccc(O)cc3)N2C[C@H](C)NC(=O)CCC2CCCCC2)cc1 | inconclusive [inhibitor, single point] |
| Cc1sc2ncnc(N3CCC(C(=O)N(C)CC(=O)Nc4ccc(Cl)c(C(F)(F)F)c4)CC3)c2c1C | active: 9.2 µM |
| CCOc1cccc2sc(NC(=O)CCS(=O)(=O)c3ccccc3)nc12 | active: 18.4 µM |
| COc1ccc(CC(N)c2csc(NC(=O)Nc3ccccc3C(C)C)n2)cc1 (stereo unspecified) | inconclusive [inhibitor, single point] |
| COc1cccc(/C=C2/CCC(CN(C)C)C2=O)c1 (stereo unspecified) | active: 1.46 µM |
| CC(=O)N1CCN(c2ccc(NC(=S)NC(=O)COc3ccc(C(C)(C)C)cc3)cc2)CC1 | inactive |
| CCN(C(=O)COC(=O)c1ccccc1Nc1ccccc1)c1c(N)n(Cc2ccccc2)c(=O)[nH]c1=O | inconclusive [inhibitor, single point] |
| CCN(CC)C(=O)[C@H]1C[C@H](CC(=O)NC/C=C(\C)CCC=C(C)C)C(=O)N2CCc3c([nH]c4cc(-c5ccco5)ccc34)[C@]12C | active: 13 µM |
| Cc1cc(C)cc(C(=O)NC(=S)Nc2ccc(Cc3ccncc3)cc2)c1 | inactive |
| NS(=O)(=O)c1ccc(NC(=S)Nc2ccn(Cc3cccc4ccccc34)n2)cc1 | inconclusive [inhibitor, single point] |
| COc1ccc(C(=O)Nc2ccc3oc(Cc4ccc(Cl)cc4)nc3c2)cc1OC | inactive |
| O=C1NCCN1CCNc1nc(NCc2ccccc2)nc2ccsc12 | inconclusive [inhibitor, single point] |
| O=C(Oc1ccc(Cl)c2cccnc12)c1cccnc1 | inconclusive [inhibitor, partial curve, poor fit] |
| C[C@@H](C(=O)NCCc1ccccc1)N1C(=O)N2CCc3c([nH]c4ccccc34)[C@@]2(C)C1=O | inconclusive [inhibitor, single point] |
| CC(C)(C)C(=O)/C(=C/c1ccc(Cl)cc1)n1cncn1 | inconclusive [inhibitor, single point] |
| CCC1(OC(=O)CN(C)C)C(=O)OCc2c1cc1n(c2=O)Cc2cc3c(N)cccc3nc2-1 (stereo unspecified) | inconclusive [inhibitor, partial curve, poor fit] |
| CC(C)(C)NC(=O)C[C@H]1C[C@H](C(=O)N2CCCCC2)[C@@]2(C)c3[nH]c4ccc(Cl)cc4c3CCN2C1=O | inactive |

| SMILES | Potency |
| --- | --- |
| COc1ccccc1CNC(=O)C(Cc1c[nH]c2ccccc12)NC(=O)OCc1ccccc1 (stereo unspecified) | inconclusive [inhibitor, single point] |
| Oc1ccc(C[C@H]2CNC(=S)N2CC2CCCN2C[C@H](Cc2ccc(O)cc2)N2C[C@H](Cc3ccccc3)N(CC3CCCCC3)C2=S)cc1 (stereo partly specified) | inconclusive [inhibitor, full curve, poor fit] |
| c1ccc(Nc2nc(-c3ccccc3)nc3ccccc23)cc1 | inconclusive [inhibitor, single point] |
| Cc1ccc(C)c(NS(=O)(=O)c2cc(C(=O)NCCC3=CCCCC3)ccc2C)c1 | inconclusive [inhibitor, single point] |
| Clc1ccc(CSc2nnc(-c3ccccn3)n2Cc2cccs2)cc1Cl | inconclusive [inhibitor, partial curve, poor fit] |
| CCOC(=O)c1c(C)[nH]c(C(=O)N/N=C/c2ccc(Br)cc2)c1C | inconclusive [inhibitor, full curve] |
| Cc1ccccc1C(=O)N1CCN(c2ccc(NC(=O)CSc3ccc(Cl)cc3)cc2)CC1 | inconclusive [inhibitor, partial curve, poor fit] |
| COC(=O)C1(CC2CC(c3cccc(Br)c3)=NO2)CCN(C(=O)OC(C)(C)C)CC1 (stereo unspecified) | inconclusive [inhibitor, single point] |
| CN(C)c1nc(N)nc(CSc2nnnn2-c2cccc3ccccc23)n1 | inactive |
| COC(=O)COc1cccc2c(=O)n(CC(=O)NCc3ccccc3)ccc12 | inactive |
| Oc1ccc(C[C@H]2CNC(=S)N2CC2CCCN2C[C@H](Cc2ccccc2)N2C[C@H](Cc3ccc(O)cc3)N(CCc3ccccc3)C2=S)cc1 (stereo partly specified) | active: 9.2 µM |
| c1ccc(-c2csc3ncnc(NCC4COc5ccccc5O4)c23)cc1 (stereo unspecified) | active: 14.6 µM |
| CCOc1cc2c(cc1O)C(=NOC)CC1C2CCC2(C)C(O)CCC12 (stereo unspecified) | active: 7.31 µM |
| COc1cc(/C=N/n2c(SC)nnc(C(C)(C)C)c2=O)ccc1O | inactive |
| COc1ccc(NS(=O)(=O)c2ccc(OC)c(N(C)S(=O)(=O)c3ccc(Cl)cc3)c2)cc1 | inconclusive [inhibitor, single point] |
| CC(=O)Oc1ccccc1C(=O)C=Cc1cccc([N+](=O)[O-])c1 | active: 5.8 µM |
| CC1C(=O)N(Cc2cn(CCC3OCCCO3)nn2)CCS(=O)(=O)N1Cc1ccc(-c2ccc(Cl)cc2)cc1 (stereo unspecified) | inconclusive [inhibitor, partial curve, poor fit] |
| O=C(CSc1nnc(COc2cccc3cccnc23)o1)N1CCc2ccccc21 | inactive |
| OC(COC(c1ccccc1)c1ccccc1)CN1CCN(c2cccc(Cl)c2)CC1 (stereo unspecified) | inconclusive [inhibitor, single point] |
| CCN(C[C@H]1N[C@@](Cc2ccccc2)(C(=O)OC)[C@H]2C(=O)N(Cc3ccccc3)C(=O)[C@@H]12)C(=O)Nc1ccc(F)cc1 | inconclusive [inhibitor, partial curve, poor fit] |
